# From PubChem BioAssay AID1454 (National Center for Advancing Translational Sciences (NCATS), 2008)
# Values joined by “and” are separate entries in the source; they are usually repeats but may differ in a detail not shown here. Identical values can stand only once. Hit rate of the full screen: of about 130,000 compounds, about 550 (0.42%) were called active. The shares of active, inactive and inconclusive entries below differ from those in the screen. Calls come from the whole dose curve; as a rule, active = well fitted inhibition curve with a large enough effect; inconclusive = small, poorly fitted or top-dose-only effect, or effect the other way; inactive = flat fitted curve, though single readings scatter. Potencies of inconclusive entries are doubtful fits and often do not repeat. A structure can be active in one record and inactive in another.
# Assay: qHTS Assay for Inhibitors of the ERK Signaling Pathway using a Homogeneous Screening Assay; Stimulation with EGF; note: nearly all actives have a fitted effect of over 55% in size
# Details: HEK293-V1b, EGF-stimulated phospho-ERK AlphaScreen
# Outline: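 Compounds are titrated over HEK293-V1b cells kept overnight in 1% FBS. After 30 min at 37C, EGF (25 nM final) triggers ERK phosphorylation for 5 min, measured by AlphaScreen in lysates.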
# Potency is the fitted concentration of half-maximal effect; tags give direction and shape of the fitted curve.
row,Compound,Potency
1,Cc1ccc(C[N+](C)(C)C)o1,inactive
2,COc1ccc(-c2coc3cc(OC(=O)N4CCOCC4)ccc3c2=O)cc1,"inconclusive: 3.16 µM [inhibitor, single point]"
3,Cc1ccsc1C(=O)C1CCCN(Cc2ccccc2O)C1 (stereo not given),inactive
4,CCN(CC)c1ccc(N=Cc2c(O)n(-c3cc(OC)ccc3OC)c(=O)[nH]c2=O)cc1,"inconclusive: 12.6 µM [inhibitor, partial curve]"
5,Cc1ccc2c(c1)C1CN(C)CCC1N2C(=O)/C(C#N)=C/c1ccc2c(c1)OCO2 (stereo not given),"inconclusive: 35.5 µM [inhibitor, single point]"
6,Cc1ncc(CN2CC=C(c3ccccc3)CC2)c(N)n1,inactive
7,Cc1cccc(OP(=O)(Oc2ccccc2)OC(c2ccccc2)C(F)(F)F)c1 (stereo not given),"inconclusive: 28.2 µM [activator, partial curve]"
8,O=C1NC(=O)C(=Cc2ccc(N3CCN(C(=O)c4ccccc4)CC3)c([N+](=O)[O-])c2)C(=O)N1,"inconclusive: 39.8 µM [inhibitor, single point]"
9,Cc1ccc2c(c1)C1CN(C)CCC1N2C(=O)c1cccs1 (stereo not given),"inconclusive: 25.1 µM [inhibitor, single point]"
10,C=CCN1CCc2cccc3c2C1Cc1ccc(O)c(O)c1-3 (stereo not given),"inconclusive: 25.1 µM [inhibitor, single point]"
11,CCn1c(O)c(N=Nc2ccc(S(=O)(=O)N3CCOCC3)cc2)c(=O)n(CC)c1=S,"inconclusive: 14.1 µM [inhibitor, partial curve, poor fit]"
12,Cc1cc(C)cc(N2C(=O)NC(=O)/C(=C\c3cccn3-c3ccccc3)C2=O)c1,"inconclusive: 39.8 µM [inhibitor, single point]"
13,COc1cc2c(cc1O)C(CCc1ccc(Cl)cc1)N(C)CC2 (stereo not given),"inconclusive: 39.8 µM [inhibitor, single point]"
14,O=C1NC(=S)NC(=O)C1=Cc1cccc2cc3ccccc3cc12,active: 28.2 µM
15,Cc1ccc(N2C(=O)NC(=O)/C(=C\C=C\c3ccco3)C2=O)cc1C,"inconclusive: 35.5 µM [inhibitor, single point]"
16,COc1ccccc1CN1CCCC2(CCN(C(=O)Oc3ccccc3)CC2)C1,inactive
17,Nc1ccncc1,"inconclusive: 10 µM [inhibitor, single point]"
18,CC(C)[C@@]1(NC(=O)[C@@H]2C[C@@H]3c4cccc5[nH]cc(c45)C[C@H]3N(C)C2)O[C@@]2(O)C3CCCN3C(=O)[C@H](Cc3ccccc3)N2C1=O (stereo not given in full),inactive
19,O=C1NC(=O)C(=Cc2ccc(Sc3ccccc3)o2)C(=O)N1,"inconclusive: 25.1 µM [inhibitor, single point]"
20,CC(C)OC1CCCC(O)C1CC(=O)O (stereo not given),inactive
21,O=C(Nc1ccc(Cl)c(C(F)(F)F)c1)NC1CC2CCCC(C1)N2Cc1ccccc1 (stereo not given),"inconclusive: 22.4 µM [inhibitor, single point]"
22,C=CCN1C(=O)NC(=O)/C(=C/C=C/c2ccccc2)C1=O,active: 22.4 µM

row,Compound,Potency
1,C[C@]12CCC(=O)C[C@@H]1CC[C@@H]1[C@@H]2CC[C@@]2(C)[C@H]1CC[C@]2(C)O,"inconclusive: 3.55 µM [inhibitor, single point]"
2,COc1ccc2c(c1)c(CCN)c(C)n2Cc1ccccc1,inactive
3,O=C1NC(=O)N(c2ccccc2)C(=O)/C1=C/c1ccc(Sc2ccccc2)o1,inactive
4,CCOc1cccc(=NC2CCCCC2)c2c(C)[nH]c(C)c12,"inconclusive: 5.01 µM [inhibitor, full curve, poor fit]"
5,COC1C(O)C(C)O[C@H](OC2CC[C@@]3(C=O)C4CC[C@]5(C)C(C6=CC(=O)OC6)CC[C@@]5(O)C4CC[C@@H]3C2)C1O (stereo not given in full),inactive
6,ClC1=C(Cl)C2(Cl)C3C(Cl)C=CC3C1(Cl)C2(Cl)Cl (stereo not given),"inconclusive: 1 µM [inhibitor, full curve, poor fit]"
7,CCCCOC(=O)CCN1C(=O)/C(=C2\SC(=S)N(CCC(=O)OCCCC)C2=O)SC1=S,"inconclusive: 20 µM [inhibitor, partial curve]"
8,Cc1ccsc1C(=O)C1CCCN(Cc2sc(N(C)C)nc2Cl)C1 (stereo not given),active: 20 µM
9,Cc1ccsc1C(=O)C1CCCN(Cc2cnc(N3CCOCC3)s2)C1 (stereo not given),"inconclusive: 25.1 µM [inhibitor, partial curve, poor fit]"
10,CC(=O)N1CCN(c2ccc(OCC3CO[C@@](Cn4ccnc4)(c4ccc(Cl)cc4Cl)O3)cc2)CC1 (stereo not given in full),"inconclusive: 20 µM [inhibitor, single point]"
11,Cc1nn(Cc2ccccc2)c(C)c1C=C1C(=O)NC(=S)NC1=O,inactive
12,O=c1c2ccccc2ncn1-c1ccc([N+](=O)[O-])c(C(F)(F)F)c1,inactive
13,CC1CC[C@@]2(OC1)OC1C(O)C3C4CC[C@H]5CC(O[C@@H]6O[C@@H](CO)[C@H](OC7OC(CO)C(O)C(OC8OCC(O)C(O)[C@H]8O)[C@@H]7O[C@@H]7OC(CO)[C@H](O)[C@@H](O[C@@H]8OC(CO)C(O)C(O)C8O)C7O)C(O)C6O)C(O)C[C@]5(C)C4CC[C@]3(C)C1C2C (stereo not given in full),active: 7.08 µM
14,O=C(Oc1ccccc1)N1CCC2(CCN(Cc3ccncc3)CC2)CC1,inactive
15,Clc1ccc(CO/N=C(\Cn2ccnc2)c2ccc(Cl)cc2Cl)c(Cl)c1,"inconclusive: 11.2 µM [inhibitor, partial curve]"
16,CCC(C)/C=C(C)/C=C/C1=CC2=C(Cl)C(=O)C(C)(OC(C)=O)C(=O)C2=CO1 (stereo not given),"inconclusive: 22.4 µM [inhibitor, single point]"
17,CC(C)C1C(=O)N2CCCC2[C@]2(O)O[C@@](NC(=O)[C@@H]3C=C4c5cccc6[nH]cc(c56)C[C@H]4N(C)C3)(C(C)C)C(=O)N12 (stereo not given in full),inactive
18,O=C(CN1CCCCC1c1cccnc1)c1ccccc1 (stereo not given),inactive
19,Clc1ccc(CSC(Cn2ccnc2)c2ccc(Cl)cc2Cl)cc1 (stereo not given),"inconclusive: 17.8 µM [inhibitor, single point]"
20,CN1CCN(c2ccc([N+](=O)[O-])c3no[n+]([O-])c23)CC1,active: 10 µM
21,Cc1cccc(NP(=O)(Oc2ccccc2F)Oc2ccccc2F)c1C,"inconclusive: 31.6 µM [inhibitor, single point]"
22,O=[N+]([O-])c1ccc(N2CCCCC2)c2ncccc12,"inconclusive: 17.8 µM [inhibitor, partial curve]"

row,Compound,Potency
1,COC(=O)C12C/C=C\Cc3ccccc3[C@@H]1CNC2=O (stereo not given in full),inactive
2,CC(=O)[C@H]1CC[C@H]2[C@@H]3CCC4=CC(=O)CC[C@]4(C)[C@H]3CC[C@]12C,inactive and active: 14.1 µM
3,CC(=O)N1CCN(c2ccc(OC[C@H]3CO[C@](Cn4ccnc4)(c4ccc(Cl)cc4Cl)O3)cc2)CC1,"inconclusive: 17.8 µM [inhibitor, single point] and inconclusive: 8.91 µM [inhibitor, single point] and inconclusive: 28.2 µM [inhibitor, single point]"
4,C[C@@]12CCC(=O)C[C@@H]1CC[C@@H]1[C@@H]2CC[C@]2(C)C(=O)CC[C@@H]12,inactive
5,Cc1cc([N+](=O)[O-])c2ccccc2[n+]1[O-],inactive
6,Cc1ccc(N=Nc2cc(C)ccc2N)cc1,"inconclusive: 20 µM [inhibitor, partial curve]"
7,Cc1ncoc1C(=O)NCCC(c1ccccc1)c1ccccc1,"inconclusive: 39.8 µM [inhibitor, single point]"
8,CC1(C)C[C@H]2C=C(C=O)[C@]3(C=O)C[C@]3(C)[C@H]2C1,active: 10 µM
9,CN1[C@@H]2CC[C@H]1CC(O[C@@H](c1ccccc1)c1ccc(Cl)cc1)C2 (stereo not given in full),inactive
10,C=C1C(=O)O[C@@H]2C[C@@H](C)[C@@H]3C=CC(=O)[C@@]3(C)[C@@H](O)[C@H]12,"inconclusive: 31.6 µM [inhibitor, single point]"
11,O=C(COC(=O)Cc1ccccc1)Nc1ccc(Cl)cn1,inactive
12,CCCC/C(C)=C/[C@@H](NP(=O)(c1ccccc1)c1ccccc1)c1ccccc1,"inconclusive: 10 µM [inhibitor, single point] and inconclusive: 12.6 µM [inhibitor, single point]"
13,COC(=O)C12CC3=C[C@H](CC3=O)Cc3ccccc3[C@@H]1CNC2=O (stereo not given in full),inactive
14,Cc1cc(/C=C2/C(=O)NC(=O)N(Cc3ccco3)C2=O)c(C)n1-c1ccccc1,inactive
15,C/C(CC(c1ccccc1)c1c(O)c2ccccc2oc1=O)=N\Nc1ccc([N+](=O)[O-])cc1[N+](=O)[O-] (stereo not given),"inconclusive: 1.78 µM [inhibitor, full curve]"
16,CC(C)=CCc1c(O)cc2c(c1O)C(=O)CC(c1ccc(O)cc1)O2 (stereo not given),"inconclusive: 35.5 µM [inhibitor, single point]"
17,CN(C)C1C(=O)C(C(N)=O)=C(O)[C@@]2(O)C(=O)C3=C(O)c4c(O)ccc(Cl)c4[C@](C)(O)C3CC12 (stereo not given in full),inactive
18,CC(C)=CCCC1(C)C=Cc2c(O)c3c(c(CC=C(C)C)c2O1)OC12C(CC4CC1C(C)(C)OC2(C/C=C(/C)C(=O)O)C4O)C3=O (stereo not given),"inconclusive: 39.8 µM [inhibitor, single point]"
19,CCc1ccc(N2C(=O)NC(=O)/C(=C\C=C\c3ccco3)C2=O)cc1,"inconclusive: 39.8 µM [inhibitor, single point]"
20,CCOC(=O)COc1ccc2c(c1)c(C(C)=O)c(C)n2Cc1ccccc1,inactive
21,Cc1ccsc1C(=O)C1CCCN(Cc2cc3ccccc3o2)C1 (stereo not given),"inconclusive: 15.8 µM [inhibitor, partial curve]"
